{"source": "PubChem BioAssay AID1963576", "about": "(National Center for Advancing Translational Sciences (NCATS), 2024)", "note": "The campaign covered roughly 46,000 compounds. About 60 (0.1%) were called active. Not shown: some 3% with an inconclusive outcome. The call rests on the fitted dose curve; in most records, active means well fitted inhibition curve with a large enough effect; inconclusive means small, poorly fitted or top-dose-only effect; inactive means no such curve, though single readings can be large or run the other way. This is one part of the list."}
{"test": "Primary qHTS assay for Inhibitors of ovarian cancer metastasis using an organotypic tumor microenvironment (TME) model; further: nearly all actives have a fitted effect of over 65% in size;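 on activity change, negative = inhibition: plate controls were DMSO wells for no effect and tomatine positive control wells for full effect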.", "details": "SKOV3ip1-GFP adhesion/invasion on 3D omental model, fluorescence; series mostly up to 45.8 µM; activity change, negative = inhibition: at the top concentration", "procedure,_shortened": "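A 3D layer of primary human omental fibroblasts, mesothelial cells, fibronectin and collagen I, grown 48 hr, received SKOV3ip1-GFP cells in serum-free medium plus compounds at 0.36-46 umol/L. After 2 hr RT and 16 hr 37 C, fixed adherent GFP cells were counted; normalized to DMSO and tomatine.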"}
{"smiles": "CC(C)Oc1ccc(CN2CCc3nc(Nc4ccc5c(c4)OCCO5)ncc3C2)cc1", "activity change, negative = inhibition": "inactive: -1.3%"}
{"smiles": "Cc1ccc(Sc2c(C(=O)NCc3cccc(F)c3)[nH]c3ccccc23)cc1", "activity change, negative = inhibition": "inactive: 4.22%"}
{"smiles": "CC(NC(=O)CN1C(=O)COc2ccc(S(=O)(=O)N3CCCCCC3)cc21)c1ccccc1", "note": "(stereo unspecified)", "activity change, negative = inhibition": "inactive: 3.08%"}
{"smiles": "CN(C)CCNC(=O)c1ccc(-n2c(-c3ccccc3)cc3c2CCCCC3)cc1", "activity change, negative = inhibition": "inactive: -5.55%"}
{"smiles": "Cc1ccc(-c2nc3cc(NC(=O)c4cc5ccccc5o4)ccc3o2)cc1Cl", "activity change, negative = inhibition": "inactive: -2.54%"}
{"smiles": "CCN1CCc2c(sc(NC(=O)c3ccc(S(=O)(=O)N(CCOC)CCOC)cc3)c2C(N)=O)C1", "activity change, negative = inhibition": "inactive: -27.8%"}
{"smiles": "COC(=O)c1ccc(NC(=O)CN2CCCN(Cc3ccc(Cl)cc3)S2(=O)=O)cc1", "activity change, negative = inhibition": "inactive: -8.51%"}
{"smiles": "CCOCCCn1c(SCC(=O)Nc2cc(C)ccc2C)nc2c(oc3ccccc32)c1=O", "outcome": "inactive"}
{"smiles": "COc1ccccc1CNC(=O)CCC(=O)N1CC(C)Sc2ccccc21", "note": "(stereo unspecified)", "outcome": "inactive"}
{"smiles": "Cc1c(C(=O)N(C)C)sc2c1c(=O)n(-c1ccc(Cl)c(Cl)c1)c(=O)n2CC(=O)C(C)(C)C", "activity change, negative = inhibition": "inactive: -6.99%"}
{"smiles": "O=C(COc1ccc(Cl)cc1)N(Cc1ccco1)Cc1ccco1", "outcome": "inactive"}
{"smiles": "Cc1nc2ccn(Cc3cccs3)c(=O)c2cc1C(=O)NCc1ccc(Br)cc1", "activity change, negative = inhibition": "inactive: -14.1%"}
{"smiles": "COc1ccc(OC)c(NC(=O)CSC2=Nc3ccccc3C3=NC(CCC(=O)NCc4ccccc4)C(=O)N23)c1", "note": "(stereo unspecified)", "activity change, negative = inhibition": "inactive: 25%"}
{"smiles": "Cc1csc2nc(COC(=O)c3cccc(NC(=O)c4cccc(Cl)c4)c3)cc(=O)n12", "outcome": "inactive"}
{"smiles": "CCCN(c1ccc(C(C)C)cc1)S(=O)(=O)c1ccc2c(c1)n(C)c(=O)c(=O)n2C", "outcome": "inactive"}
{"smiles": "CCc1nn(CC(=O)N2CCC(C)CC2)c(=O)c2cc3occc3n12", "activity change, negative = inhibition": "inactive: 265%"}
{"smiles": "Cc1ccc(NC(=O)CSc2nc3ccccc3n2CC(=O)N2CCC(C)CC2)cc1C", "activity change, negative = inhibition": "inactive: -6.02%"}
{"smiles": "O=S(=O)(Nc1cccc(C(F)(F)F)c1)c1ccc(NS(=O)(=O)c2ccc3c(c2)OCCO3)cc1", "outcome": "inactive"}
{"smiles": "COc1ccc(C(=O)Nc2cccc(-c3cn4ccsc4n3)c2)c(OC)c1", "outcome": "inactive"}
{"smiles": "Cc1cccc(N2CCN(C(=O)CN3C(=O)COc4ccc(S(=O)(=O)N5CCC(C)CC5)cc43)CC2)c1C", "activity change, negative = inhibition": "inactive: -2.62%"}
{"smiles": "Cc1ccc2sc(N(Cc3cccnc3)C(=O)Cc3ccccc3)nc2c1C", "activity change, negative = inhibition": "inactive: 6.8%"}
{"smiles": "O=C(c1cccs1)c1cn(CCOc2ccc(Cl)cc2)c2ccccc12", "outcome": "inactive"}
{"smiles": "CC1=C(C(N)=O)C(c2cccc(O)c2)n2ncnc2N1", "note": "(stereo unspecified)", "outcome": "inactive"}
{"smiles": "CCC(=O)Oc1cc(C(C)(C)C)cc2cc(-c3nc(-c4ccc(OC)cc4OC)no3)c(=O)oc12", "activity change, negative = inhibition": "inactive: -1.49%"}
{"smiles": "CCOc1ccc(N(CC(=O)Nc2cc(OC)cc(OC)c2)S(=O)(=O)c2c(C)[nH]c(=O)[nH]c2=O)cc1", "activity change, negative = inhibition": "inactive: 1.21%"}
{"smiles": "Cc1ccc(-n2nc3c(N4CCC(C(=O)NC5CCC(C)CC5)CC4)nnc(C)c3c2C)cc1", "note": "(stereo unspecified)", "activity change, negative = inhibition": "inactive: -2.9%"}
{"smiles": "O=C(CCCCCCC(=O)Nc1ccc([C@H]2O[C@@H](CSc3nc(-c4ccccc4)c(-c4ccccc4)o3)C[C@@H](c3ccc(CO)cc3)O2)cc1)NO", "activity change, negative = inhibition": "inactive: -15.5%"}
{"smiles": "CN(C)CCNC(=O)c1ccc(Cn2c(SCc3ccc(F)cc3)nc3cccnc32)cc1", "activity change, negative = inhibition": "inactive: -17%"}
{"smiles": "Cc1ccc(C(=O)c2cn(Cc3ccccc3F)c3cc4c(cc3c2=O)OCCO4)cc1", "activity change, negative = inhibition": "inactive: -30.5%"}
{"smiles": "CN(CC(=O)NCc1ccc(Cl)cc1)S(=O)(=O)c1ccc2[nH]c3c(c2c1)CCCC3", "activity change, negative = inhibition": "inactive: -18%"}
{"smiles": "COc1ccc(CNc2nc(-c3ccccc3)nn2S(=O)(=O)c2ccccc2)cc1", "activity change, negative = inhibition": "inactive: -11.9%"}
{"smiles": "CCn1c(SCc2ccccc2C)nc(=O)c2c(C(=O)OC)cc(C3CC3)nc21", "outcome": "inactive"}
{"smiles": "Cc1ccc2c(c1)c1c(c(=O)n(-c3cccc(Cl)c3)c(=O)n1CC(=O)NCCC1=CCCCC1)n2C", "activity change, negative = inhibition": "inactive: 4.39%"}
{"smiles": "COc1ccccc1CNC(=O)CCC1N=C2c3ccccc3N=C(SCC(=O)Nc3ccc(F)cc3)N2C1=O", "note": "(stereo unspecified)", "activity change, negative = inhibition": "inactive: 1.73%"}
{"smiles": "CCCc1cc(=O)n2c(C(=O)Nc3ccc(OCC)cc3)c(C(=O)Nc3ccc(C)cc3)sc2n1", "activity change, negative = inhibition": "inactive: -3.01%"}
{"smiles": "COc1cccc(C2c3c(oc4cc(C)cc(C)c4c3=O)C(=O)N2CCc2ccc(OC)c(OC)c2)c1", "note": "(stereo unspecified)", "activity change, negative = inhibition": "inactive: 5.57%"}
{"smiles": "O=c1cc(CSc2ncn[nH]2)[nH]c2ccc(F)cc12", "outcome": "inactive"}
{"smiles": "COc1ccc(-n2c(Cc3ccccc3)nnc2SCc2nc(-c3cccs3)no2)cc1", "outcome": "inactive"}
{"smiles": "CCOC(=O)C1CCC(CN(Cc2ccc(OC)cc2)S(=O)(=O)c2ccc(F)c(C(=O)Nc3ccc(C)c(C)c3)c2)CC1", "note": "(stereo unspecified)", "activity change, negative = inhibition": "inactive: -0.687%"}
{"smiles": "CCc1ccc(NS(=O)(=O)c2ccc3oc(=O)c4ncn(CC)c4c3c2)cc1", "activity change, negative = inhibition": "inactive: -7.53%"}
{"smiles": "O=C(Nc1nnc(-c2cc(Cl)ccc2Cl)o1)c1ccc2c(c1)OCCO2", "activity change, negative = inhibition": "inactive: 7.12%"}
{"smiles": "Cc1ccc(NC(=O)N2CCc3cc(S(=O)(=O)N4CCC(C)CC4)ccc32)cc1", "activity change, negative = inhibition": "inactive: 0.682%"}
{"smiles": "COc1ccccc1N1CCN(C(=O)Cn2ncc3ccsc3c2=O)CC1", "outcome": "inactive"}
{"smiles": "CC(C)Oc1ccc(CNC(=O)c2ccc(CS(=O)c3cccc(Cl)c3)o2)cc1", "note": "(stereo unspecified)", "outcome": "inactive"}
{"smiles": "COc1cccc(-n2cc(C(=O)Nc3cccc(C(F)(F)F)c3)c3ccccc3c2=O)c1", "outcome": "inactive"}
{"smiles": "CCN(C(=O)Cn1c(=O)n(CCCS(=O)(=O)C2CCCCC2)c(=O)c2ccccc21)c1cccc(C)c1", "activity change, negative = inhibition": "inactive: 1.85%"}
